According to PMC6919601, “Identification of Plasmodium dipeptidyl aminopeptidase allosteric inhibitors by high throughput screening” (PLoS ONE, 2019):
The campaign covered roughly 110,000 compounds. About 230 (0.21%) showed an effect of 50% or more. Some of the results follow.

Target: DPAP1 (Plasmodium falciparum, UniProt Q8IIJ9)
Assay: primary screen, percent inhibition; read by cleavage of a fluorogenic dipeptide substrate; higher = more effect of the substance
Parameters: species or system P. falciparum D10 trophozoite lysates; single well
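Note: 30 min substrate incubation versus DMSO and 10 µM JCP410 controls.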

Sequence of DPAP1 (Q8IIJ9 whole entry, looked up): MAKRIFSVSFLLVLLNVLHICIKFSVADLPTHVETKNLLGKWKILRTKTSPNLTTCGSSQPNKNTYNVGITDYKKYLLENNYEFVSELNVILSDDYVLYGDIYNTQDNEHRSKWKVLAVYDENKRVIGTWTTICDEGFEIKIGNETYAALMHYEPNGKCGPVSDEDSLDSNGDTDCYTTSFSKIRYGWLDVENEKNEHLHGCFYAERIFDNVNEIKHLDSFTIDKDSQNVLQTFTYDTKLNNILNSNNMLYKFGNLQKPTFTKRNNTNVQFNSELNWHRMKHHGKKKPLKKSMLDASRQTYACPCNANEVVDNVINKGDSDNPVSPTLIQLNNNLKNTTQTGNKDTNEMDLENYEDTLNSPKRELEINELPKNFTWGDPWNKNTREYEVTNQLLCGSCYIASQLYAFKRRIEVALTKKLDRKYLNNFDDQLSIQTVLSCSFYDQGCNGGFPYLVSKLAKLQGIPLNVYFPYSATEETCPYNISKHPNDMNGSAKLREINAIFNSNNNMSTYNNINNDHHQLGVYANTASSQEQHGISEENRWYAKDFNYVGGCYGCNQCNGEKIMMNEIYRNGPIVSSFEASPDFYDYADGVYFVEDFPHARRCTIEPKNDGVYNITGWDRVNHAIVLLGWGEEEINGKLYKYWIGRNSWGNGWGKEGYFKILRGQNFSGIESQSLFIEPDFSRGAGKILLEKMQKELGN

Row | Compound | % Inhibition @ 10 uM [%]
1 | O=C(NCc1ccccc1)c1cc(-c2cccs2)nc2ccccc12 | 10.8
2 | Cc1nn(-c2ccc3ccccc3c2)c(=O)c2ccccc12 | -0.712
3 | COc1ccc(Br)cc1C1C(C#N)=C(N)Oc2[nH]nc(C)c21 (centres unmarked) | 2.36
4 | CCOc1ccccc1C1C=C(c2ccc(OC)cc2)Nc2nnnn21 (centres unmarked) | 0.0842
5 | Cc1cc(O)ccc1NC(=O)c1ccc2c(c1)C(=O)N(Cc1cccnc1)C2=O | -6.47
6 | CCc1nn(CCCC(=O)NC2CCCCC2C)c(=O)c2cc3occc3n12 (centres unmarked) | -0.281
7 | O=C1CC(N2CCN(C/C=C/c3ccccc3)CC2)C(=O)N1c1ccc(Br)cc1 (centres unmarked) | -0.132
8 | CCOc1ccc2nc(N3CCC(C(=O)Nc4cccnc4)CC3)sc2c1 | 3.4
9 | CCOc1ccccc1-c1nn2c(-c3ccccc3OC)nnc2s1 | 2.89
10 | Cc1c(CC(=O)O)c(=O)oc2cc3occ(-c4ccccc4)c3cc12 | 11.4
11 | COc1ccc(S(=O)(=O)N(CC(=O)NCC2CCCO2)c2ccccc2)cc1 (centres unmarked) | 3.21
12 | CCc1ccc(C2c3c(oc4ccc(C)cc4c3=O)C(=O)N2c2nccs2)cc1 (centres unmarked) | -3.13
13 | CCc1[nH]nc2c1C(c1ccc(OC)cc1)C(C#N)=C(N)O2 (centres unmarked) | -5.34
14 | O=C(NCc1cccnc1)C1=CCN(S(=O)(=O)c2ccccc2)CC1 | -3.35
15 | Cc1nnc(SCc2ccccc2CSc2nnc(C)s2)s1 | -4.04
16 | CCC(Cc1ccccc1)NC(=O)c1nnc(Cc2ccccc2Cl)o1 (centres unmarked) | 2.5
17 | CC(C)Cc1ccc(C(C)c2nc3ccccc3[nH]2)cc1 (centres unmarked) | -0.712
18 | c1ccc(CCC2NCCn3cccc32)cc1 (centres unmarked) | 2.96
19 | CCCCc1ccc(NC(=O)c2ccn(CC)n2)cc1 | -1.64
20 | O=C(NCCCN1CCc2ccccc2C1)C1CCN(c2nnc(N3CCCC3=O)s2)CC1 | 0.623
21 | CCOc1ccc(/C=C2/CN(C)C/C(=C\c3ccc(OCC)cc3)C2=O)cc1 | -5.51
22 | CC(Cc1cccc(C(F)(F)F)c1)N1CCc2c([nH]c3ccccc23)C1 (centres unmarked) | -3.5

Row | Compound | % Inhibition @ 10 uM [%]
23 | COc1ccc(-c2cc(C(F)(F)F)c(C#N)c(SCC(=O)O)n2)cc1OC | 12.9
24 | COc1ccccc1OCc1ccc(C(=O)N2N=C(C)CC2(O)C(F)(F)F)o1 (centres unmarked) | 2.03
25 | CC1CCCCN1Cc1nc2c(c(=O)n(C)c(=O)n2C)n1Cc1c(F)cccc1Cl (centres unmarked) | -0.499
26 | CCNC(=S)Nc1ccccc1Cl | 3.03
27 | CCOc1ccccc1NC(=O)COc1ccccc1OC | -6.66
28 | Cc1ccccc1C(=O)N1CCN(C2=NS(=O)(=O)c3ccccc32)CC1 | 2.13
29 | Cc1cc(C(F)(F)F)n2nc(C)cc2n1 | -3.96
30 | N#CC1=C(N)Oc2[nH]nc(-c3ccc(Br)cc3)c2C1C1CC=CCC1 (centres unmarked) | 3.05
31 | COCCCNC(=O)/C(C#N)=C/c1c(Oc2ccccc2Cl)nc2c(C)cccn2c1=O | 3.63
32 | COc1cc(-c2cc(N)n(S(=O)(=O)c3ccccc3)n2)cc(OC)c1OC | 2.74
33 | Cc1nc2ccccn2c1C(=O)Nc1cccc(Cl)c1 | 0.0792
34 | C=CCn1cnc2c(oc3ccccc32)c1=O | -1.19
35 | COc1cc2c(cc1OC)C(c1cccc(Cl)c1)NCC2 (centres unmarked) | -7.46
36 | COc1ccc(CN2CC=C(c3ccc(F)cc3)CC2)cc1 | 1.57
37 | Cn1c(=O)c2c(ncn2CC(=O)Nc2nnc(C3CCCCC3)s2)n(C)c1=O | 1.91
38 | Cn1c(S(=O)(=O)CC(N)=O)nc2ccccc21 | -4.42
39 | CCCn1c(=N)n(CC(O)COc2ccccc2)c2ccccc21 (centres unmarked) | 3.69
40 | O=C(Cn1c(=O)c2cccn2c2cccnc21)N1CCC2(CC1)OCCO2 | 1.26
41 | Cc1cc(NC(=O)CN2CCCCCC2)c2ccccc2n1 | -5.78
42 | COc1ccc(OCCNS(=O)(=O)c2ccc3nc(O)sc3c2)cc1 | 4.61
43 | COCCNC(=O)c1c(NC(=O)Cc2coc3ccc(C(C)C)cc23)sc2c1CCCC2 | -4.19
44 | CC(=O)c1cccc(NC(=O)c2sc(Cl)nc2-c2ccccc2)c1 | 1.83

Row | Compound | % Inhibition @ 10 uM [%]
45 | COc1ccc(CCNCc2cccc(C)c2)cc1OC | -1.24
46 | COc1cccc(NC(=O)C(N)=O)c1 | 6.52
47 | COCCNC(=O)C1CCN(c2nn3cc(-c4ccc(C)cc4)nc3s2)CC1 | 2.72
48 | Oc1c2c(nc3nncn13)CCN(Cc1ccccc1)C2 | -3.49
49 | O=C(Nc1ccccc1C(F)(F)F)c1ccc(F)cc1 | -6.08
50 | COc1ccc(S(=O)(=O)NC(C)c2ccc(-n3ccnc3)cc2)c2ccccc12 (centres unmarked) | 0.895
51 | COc1ccc(C)cc1NC(=O)CSCC(=O)Nc1ccccc1 | -3.49
52 | Cc1ccc(-n2nc3c(c2NC(=O)CCC2CCCC2)CS(=O)(=O)C3)cc1 | -0.349
53 | Cc1cc(-c2ccccc2C(=O)NCc2ccccc2)on1 | -3.56
54 | C#CCOC(=O)c1ccccc1C(=O)O | 1.76
55 | COc1cccc(C(=O)N/C(=C\c2cccnc2)C(=O)N2CC3CC(C2)c2cccc(=O)n2C3)c1 (centres unmarked) | 1.76
56 | COC(=O)c1ccc(C(=O)N2CCC(c3nc(O)c4nnn(Cc5ccc(F)cc5)c4n3)CC2)cc1 | 1.85
57 | COc1ccc(C(CC(=O)Nc2ncccc2C)N2Cc3ccccc3C2=O)cc1 (centres unmarked) | -3.84
58 | CCCn1c2c(c(O)c(C(=O)Nc3nc4ccccc4s3)c1=O)CCCC2 | -0.458
59 | CCOC(=O)c1c(NC(=O)CCCOc2ccc(Cl)cc2Cl)sc(C)c1C | 4.34
60 | COc1ccc(-c2cc(-c3ccccc3)c3cc(Cl)ccc3n2)cc1 | 1.72
61 | O=C(c1ccc(C(=O)N2CCOCC2)s1)N1CCOCC1 | -3.95
62 | CC(NC(=O)Cc1ccccc1)c1cc2c(cc1Cl)OCCO2 (centres unmarked) | -1.04
63 | CCCN(CC1CC1)C1CCN(C)CC1 | -1.15
64 | Cc1ccc(-c2cc(C(F)F)n3ncc(C(=O)N4CCN(c5ncccn5)CC4)c3n2)cc1 | 4.08
65 | Cc1nnc(NC(=O)CSc2nc3c(c(=O)n2CCc2ccccc2)SCC3)s1 | -6.47
